Reference: article PMC10205607, “MAP4K3 inhibits Sirtuin-1 to repress the LKB1–AMPK pathway to promote amino acid-dependent activation of the mTORC1 complex” (Life Science Alliance, 2023)
Results are given in words; binding and its absence hold for the method and conditions named. Binding seen in cells or lysates may run through a third protein. Some results given as binding are weak or reduced against the parent protein; the word gives no strength.

Sequences of proteins named here, by UniProt entry; tags and fusion partners are left off. A change or cut given only in a name is not applied to a line headed by its entry.
UniProt Q8IVH8: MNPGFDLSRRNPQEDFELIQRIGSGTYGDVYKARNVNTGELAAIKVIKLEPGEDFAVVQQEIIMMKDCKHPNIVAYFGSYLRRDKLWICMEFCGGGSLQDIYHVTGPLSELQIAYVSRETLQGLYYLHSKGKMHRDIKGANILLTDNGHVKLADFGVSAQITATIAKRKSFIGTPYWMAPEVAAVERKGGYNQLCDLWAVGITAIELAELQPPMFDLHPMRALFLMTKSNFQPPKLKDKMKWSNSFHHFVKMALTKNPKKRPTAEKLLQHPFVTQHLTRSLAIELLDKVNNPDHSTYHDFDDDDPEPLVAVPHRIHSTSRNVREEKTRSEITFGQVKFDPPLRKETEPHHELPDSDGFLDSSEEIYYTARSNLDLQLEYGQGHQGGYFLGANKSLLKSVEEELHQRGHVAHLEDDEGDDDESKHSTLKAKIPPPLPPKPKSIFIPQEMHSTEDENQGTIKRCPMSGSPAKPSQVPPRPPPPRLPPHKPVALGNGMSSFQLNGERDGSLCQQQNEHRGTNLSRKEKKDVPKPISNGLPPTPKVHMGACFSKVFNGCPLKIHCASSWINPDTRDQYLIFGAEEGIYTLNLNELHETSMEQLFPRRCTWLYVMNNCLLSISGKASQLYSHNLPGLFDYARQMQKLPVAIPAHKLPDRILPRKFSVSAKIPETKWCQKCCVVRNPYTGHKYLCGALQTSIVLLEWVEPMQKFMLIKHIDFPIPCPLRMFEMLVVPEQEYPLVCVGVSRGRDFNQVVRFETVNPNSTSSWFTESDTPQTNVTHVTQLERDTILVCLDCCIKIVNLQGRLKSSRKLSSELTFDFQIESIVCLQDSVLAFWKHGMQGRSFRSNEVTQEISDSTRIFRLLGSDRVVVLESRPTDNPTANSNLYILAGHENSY
UniProt Q96EB6: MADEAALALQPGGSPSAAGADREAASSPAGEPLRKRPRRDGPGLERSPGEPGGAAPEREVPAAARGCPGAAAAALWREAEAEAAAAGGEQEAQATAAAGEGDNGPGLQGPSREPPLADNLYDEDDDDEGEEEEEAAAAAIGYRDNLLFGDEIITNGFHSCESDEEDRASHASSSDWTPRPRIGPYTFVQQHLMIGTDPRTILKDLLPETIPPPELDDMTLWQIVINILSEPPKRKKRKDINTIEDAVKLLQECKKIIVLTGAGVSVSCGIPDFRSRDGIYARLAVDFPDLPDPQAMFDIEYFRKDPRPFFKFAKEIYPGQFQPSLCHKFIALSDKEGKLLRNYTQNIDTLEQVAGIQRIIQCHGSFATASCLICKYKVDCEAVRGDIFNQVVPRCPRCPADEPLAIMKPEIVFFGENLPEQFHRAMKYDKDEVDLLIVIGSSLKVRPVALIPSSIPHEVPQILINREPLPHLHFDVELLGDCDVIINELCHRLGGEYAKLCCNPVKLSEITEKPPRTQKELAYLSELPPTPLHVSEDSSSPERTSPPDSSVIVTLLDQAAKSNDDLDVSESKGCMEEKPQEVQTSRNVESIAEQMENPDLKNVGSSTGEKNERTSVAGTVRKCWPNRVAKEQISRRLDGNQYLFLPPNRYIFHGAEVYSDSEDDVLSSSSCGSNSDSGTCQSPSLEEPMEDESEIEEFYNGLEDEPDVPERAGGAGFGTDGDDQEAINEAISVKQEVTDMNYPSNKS

Biological target: WT-MAP4K3-FLAG (UniProt Q8IVH8)
Test: co-IP; anti-FLAG IP from lysates of co-transfected HEK293A cells (WT or MAP4K3 k.o.), blot with anti-HA and anti-FLAG; lysis buffer 25 mM HEPES-KOH pH 7.4, 150 mM NaCl, 5 mM EDTA, 1% Triton X-100; 2 h at 4°C

Question: “SIRT1:1–114 (HA-tagged) (from UniProt Q96EB6 1-114) (domain or fragment)” was tested. Which binding did it give?
Answer: no binding

Question: How did the binding turn out when “SIRT1:1–465 (HA-tagged) (from UniProt Q96EB6 1-465) (domain or fragment)” was run?
Answer: binds

Question: How did the binding turn out when “SIRT1:1–698 (HA-tagged) (from UniProt Q96EB6 1-698) (domain or fragment)” was run?
Answer: binds

Question: “SIRT1:142–747 (HA-tagged) (from UniProt Q96EB6 142-747) (domain or fragment)” was tested. Which binding did it give?
Answer: binds

Question: For “SIRT1:465–747 (HA-tagged) (from UniProt Q96EB6 465-747) (domain or fragment)”, which binding is on record?
Answer: no binding
